# In the supplement of paper PMC8728848:
# The list shows a part of the results.
# B1: StcE (Escherichia coli), O82882.2 (protein)
# chain: ADNNSAIYFNTSQPINDLQGSLAAEVKFAQSQILPAHPKEGDSQPHLTSLRKSLLLVRPVKADDKTPVQVEARDDNNKILGTLTLYPPSSLPDTIYHLDGVPEGGIDFTPHNGTKKIINTVAEVNKLSDASGSSIHSHLTNNALVEIHTANGRWVRDIYLPQGPDLEGKMVRFVSSAGYSSTVFYGDRKVTLSVGNTLLFKYVNGQWFRSGELENNRITYAQHIWSAELPAHWIVPGLNLVIKQGNLSGRLNDIKIGAPGELLLHTIDIGMLTTPRDRFDFAKDKEAHREYFQTIPVSRMIVNNYAPLHLKEVMLPTGELLTDMDPGNGGWHSGTMRQRIGKELVSHGIDNANYGLNSTAGLGENSHPYVVAQLAAHNSRGNYANGIQVHGGSGGGGIVTLDSTLGNEFSHEVGHNYGLGHYVDGFKGSVHRSAENNNSTWGWDGDKKRFIPNFYPSQTNEKSCLNNQCQEPFDGHKFGFDAMAGGSPFSAANRFTMYTPNSSAIIQRFFENKAVFDSRSSTGFSKWNADTQEMEPYEHTIDRAEQITASVNELSESKMAELMAEYAVVKVHMWNGNWTRNIYIPTASADNRGSILTINHEAGYNSYLFINGDEKVVSQGYKKSFVSDGQFWKERDVVDTREARKPEQFGVPVTTLVGYYDPEGTLSSYIYPAMYGAYGFTYSDDSQNLSDNDCQLQVDTKEGQLRFRLANHRANNTVMNKFHINVPTESQPTQATLVCNNKILDTKSLTPAPEGLTYTVNGQALPAKENEGCIVSVNSGKRYCLPVGQRSGYSLPDWIVGQEVYVDSGAKAKVLLSDWDNLSYNRIGEFVGNVNPADMKKVKAWNGQYLDFSKPRSMRVVYK
# Experiments:
# Experiment in all cases: glycan array binding signal (z-score within array); higher = stronger binding
# Conditions in all cases: glycan notation: IUPAC condensed, linker removed
# [1] = biological target: Gal(a1-3)[Gal(a1-4)]Gal(b1-4)GlcNAc
# Procedure, shortened: (§1)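 The Consortium for Functional Glycomics database supplied 3228 glycan arrays, of which those lacking an available protein sequence were dropped. The binding signal, a within-array Z-score, was averaged across arrays of the same protein sequence and across linkers. Negative scores can be read as non-binding.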
# [2] = biological target: Gal(a1-4)Gal(b1-3)GlcNAc(b1-2)Man(a1-3)[Gal(a1-4)Gal(b1-3)GlcNAc(b1-2)Man(a1-6)]Man(b1-4)GlcNAc(b1-4)GlcNAc
# Procedure, shortened: as §1
# Gal(a1-4)Gal(b1-4)Glc = biological target: Gal(a1-4)Gal(b1-4)Glc
# Procedure, shortened: as §1
# Gal(a1-4)Gal(b1-4)GlcNAc = biological target: Gal(a1-4)Gal(b1-4)GlcNAc
# Procedure, shortened: as §1
# [3] = biological target: Gal(a1-4)Gal(b1-4)GlcNAc(b1-2)Man(a1-3)[Gal(a1-4)Gal(b1-4)GlcNAc(b1-2)Man(a1-6)]Man(b1-4)GlcNAc(b1-4)GlcNAc
# Procedure, shortened: as §1
# [4] = biological target: Gal(a1-4)Gal(b1-4)GlcNAc(b1-3)Gal(b1-4)Glc
# Procedure, shortened: as §1
# Gal(a1-4)GlcNAc = biological target: Gal(a1-4)GlcNAc
# Procedure, shortened: as §1
# Gal(a1-6)Glc = biological target: Gal(a1-6)Glc
# Procedure, shortened: as §1
# Gal(b1-2)Gal = biological target: Gal(b1-2)Gal
# Procedure, shortened: as §1
# Gal(b1-3)Gal = biological target: Gal(b1-3)Gal
# Procedure, shortened: as §1
# Gal(b1-3)Gal(b1-4)GlcNAc = biological target: Gal(b1-3)Gal(b1-4)GlcNAc
# Procedure, shortened: as §1
# [5] = biological target: Gal(b1-3)Gal(b1-4)GlcNAc(b1-2)Man(a1-3)[Gal(b1-3)Gal(b1-4)GlcNAc(b1-2)Man(a1-6)]Man(b1-4)GlcNAc(b1-4)GlcNAc
# Procedure, shortened: as §1
# Gal(b1-3)GalNAc = biological target: Gal(b1-3)GalNAc
# Procedure, shortened: as §1
# [6] = biological target: Gal(b1-3)GalNAc(a1-3)[Fuc(a1-2)]Gal(b1-4)Glc
# Procedure, shortened: as §1
# [7] = biological target: Gal(b1-3)GalNAc(a1-3)[Fuc(a1-2)]Gal(b1-4)GlcNAc
# Procedure, shortened: as §1
# [8] = biological target: Gal(b1-3)GalNAc(b1-3)Gal(a1-4)Gal(b1-4)Glc
# Procedure, shortened: as §1
# [9] = biological target: Gal(b1-3)GalNAc(b1-4)Gal(b1-4)Glc
# Procedure, shortened: as §1
# [10] = biological target: Gal(b1-3)GalNAc(b1-4)[Neu5Ac(a2-3)]Gal(b1-4)Glc
# Procedure, shortened: as §1
# Gal(b1-3)GlcNAc = biological target: Gal(b1-3)GlcNAc
# Procedure, shortened: as §1
# [11] = biological target: Gal(b1-3)GlcNAc(a1-3)Gal(b1-4)GlcNAc
# Procedure, shortened: as §1
# [12] = biological target: Gal(b1-3)GlcNAc(a1-6)Gal(b1-4)GlcNAc
# Procedure, shortened: as §1
# [13] = biological target: Gal(b1-3)GlcNAc(b1-2)Man(a1-3)[Gal(b1-3)GlcNAc(b1-2)Man(a1-6)]Man(b1-4)GlcNAc(b1-4)GlcNAc
# Procedure, shortened: as §1
# [14] = biological target: Gal(b1-3)GlcNAc(b1-2)Man(a1-3)[Gal(b1-3)GlcNAc(b1-2)Man(a1-6)]Man(b1-4)GlcNAc(b1-4)[Fuc(a1-6)]GlcNAc
# Procedure, shortened: as §1
# [15] = biological target: Gal(b1-3)GlcNAc(b1-2)Man(a1-3)[GlcNAc(b1-4)][Gal(b1-3)GlcNAc(b1-2)Man(a1-6)]Man(b1-4)GlcNAc(b1-4)GlcNAc
# Procedure, shortened: as §1
# [16] = biological target: Gal(b1-3)GlcNAc(b1-2)[Gal(b1-3)GlcNAc(b1-6)]Man(a1-6)[Gal(b1-3)GlcNAc(b1-2)Man(a1-3)]Man(b1-4)GlcNAc(b1-4)GlcNAc
# Procedure, shortened: as §1
# [17] = biological target: Gal(b1-3)GlcNAc(b1-3)Gal(b1-3)GlcNAc
# Procedure, shortened: as §1
# [18] = biological target: Gal(b1-3)GlcNAc(b1-3)Gal(b1-4)Glc
# Procedure, shortened: as §1
# [19] = biological target: Gal(b1-3)GlcNAc(b1-3)Gal(b1-4)GlcNAc
# Procedure, shortened: as §1
# [20] = biological target: Gal(b1-3)GlcNAc(b1-3)Gal(b1-4)GlcNAc(b1-6)[Gal(b1-3)GlcNAc(b1-3)]Gal(b1-4)Glc
# Procedure, shortened: as §1
# [21] = biological target: Gal(b1-3)GlcNAc(b1-3)Gal(b1-4)[Fuc(a1-3)]GlcNAc(b1-6)[Gal(b1-3)GlcNAc(b1-3)]Gal(b1-4)Glc
# Procedure, shortened: as §1
binder,measurement,setting,value
B1,glycan array binding signal (z-score),[1],-0.042
same,glycan array binding signal (z-score),[2],-0.156
same,glycan array binding signal (z-score),Gal(a1-4)Gal(b1-4)Glc,-0.39
same,glycan array binding signal (z-score),Gal(a1-4)Gal(b1-4)GlcNAc,-0.215
same,glycan array binding signal (z-score),[3],-0.125
same,glycan array binding signal (z-score),[4],-0.159
same,glycan array binding signal (z-score),Gal(a1-4)GlcNAc,-0.285
same,glycan array binding signal (z-score),Gal(a1-6)Glc,-0.394
same,glycan array binding signal (z-score),Gal(b1-2)Gal,0.601
same,glycan array binding signal (z-score),Gal(b1-3)Gal,0.264
same,glycan array binding signal (z-score),Gal(b1-3)Gal(b1-4)GlcNAc,-0.172
same,glycan array binding signal (z-score),[5],-0.137
same,glycan array binding signal (z-score),Gal(b1-3)GalNAc,-0.045
same,glycan array binding signal (z-score),[6],-0.121
same,glycan array binding signal (z-score),[7],-0.17
same,glycan array binding signal (z-score),[8],-0.145
same,glycan array binding signal (z-score),[9],-0.65
same,glycan array binding signal (z-score),[10],-0.25
same,glycan array binding signal (z-score),Gal(b1-3)GlcNAc,0.058
same,glycan array binding signal (z-score),[11],-0.109
same,glycan array binding signal (z-score),[12],-0.162
same,glycan array binding signal (z-score),[13],-0.154
same,glycan array binding signal (z-score),[14],-0.106
same,glycan array binding signal (z-score),[15],0.01
same,glycan array binding signal (z-score),[16],-0.071
same,glycan array binding signal (z-score),[17],-0.142
same,glycan array binding signal (z-score),[18],-0.002
same,glycan array binding signal (z-score),[19],-0.148
same,glycan array binding signal (z-score),[20],-0.126
same,glycan array binding signal (z-score),[21],-0.137
